PubChem BioAssay AID1434 (Sanford-Burnham Center for Chemical Genomics, 2008)
Some of the results follow. Shown are side measurements of this screen, not its main read-out; they come without a call. Most of these compounds were active or inconclusive in the main read-out, so they are no random draw.

What follows are molecules tested against Runt-related transcription factor 1 (Homo sapiens) + Core-binding factor subunit beta (Homo sapiens) (UniProt Q01196+Q13951) (assay: disruptors of Runt domain/CBFb-SMMHC interaction – biochemical, FRET, Cerulean-Runt, Venus-CBFb-SMMHC, uHTS, primary screen (AID 1434;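 note: 0% = DMSO wells and 100% = wells with excess untagged CBFb-SMMHC; inhibitors lower the FRET ratio by blocking Runt binding to CBFb-SMMHC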)). Details: Cerulean-Runt/Venus-CBFb-SMMHC FRET ratio 530/480, 1 h; retest duplicate average; at 20 µM; stronger effect = higher value.
UniProt Q01196, sequence (Q01196 whole entry, looked up, the tested form may be a part): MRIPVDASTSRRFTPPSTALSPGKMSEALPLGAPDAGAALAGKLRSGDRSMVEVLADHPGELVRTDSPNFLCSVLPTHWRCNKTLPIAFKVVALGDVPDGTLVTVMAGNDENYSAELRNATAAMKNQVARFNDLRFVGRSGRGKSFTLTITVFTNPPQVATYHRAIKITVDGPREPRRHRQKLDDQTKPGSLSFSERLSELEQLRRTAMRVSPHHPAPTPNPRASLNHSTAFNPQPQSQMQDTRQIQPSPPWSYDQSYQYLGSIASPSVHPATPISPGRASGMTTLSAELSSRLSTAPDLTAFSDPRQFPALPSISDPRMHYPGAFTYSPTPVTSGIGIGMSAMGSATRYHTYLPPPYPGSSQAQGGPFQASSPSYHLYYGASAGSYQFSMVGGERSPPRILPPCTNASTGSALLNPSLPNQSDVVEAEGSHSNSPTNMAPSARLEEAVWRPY
UniProt Q01196, sequence (Q13951 whole entry, looked up, the tested form may be a part): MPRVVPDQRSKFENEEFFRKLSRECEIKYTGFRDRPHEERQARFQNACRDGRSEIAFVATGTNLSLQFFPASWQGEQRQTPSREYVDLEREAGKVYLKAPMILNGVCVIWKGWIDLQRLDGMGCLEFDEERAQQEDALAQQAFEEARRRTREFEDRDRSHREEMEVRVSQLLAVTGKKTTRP

| Structure (SMILES) | inhibition |
| --- | --- |
| N#CC1(C#N)C(c2ccccc2)OC23CCCCCC2C1(C#N)C(=N)O3 (stereo not given) | 72.8% |
| CN(C)CCCNC(=S)NCCNc1nc2cc3c(cc2cc1C#N)OCO3 | 174% |
| O=S(=O)(Nc1ccc(-c2nc3cccnc3s2)cc1)c1ccc(Cl)s1 | 129% |
| NSc1nc(N)c2nc(-c3ccccc3)c(-c3ccccc3)nc2n1 | 88.2% |
| COc1cccc(C2C=C(c3ccc(Br)s3)Nc3ncnn32)c1OC (stereo not given) | 71.5% |
| CCOC(=O)c1c(/N=C/N(C)C)sc(/C=N/Nc2ccccc2)c1-c1ccccc1 | 151% |
| O=c1oc2ccc3ccccc3c2cc1-c1nnc(-c2cccs2)o1 | 71.5% |
| O=C(O)CSc1c2c(nc3cc(C(=O)N4CCOCC4)ccc13)CCCC2 | 106% |
| O=C(Oc1ccc2c3c(c(=O)oc2c1)CCCC3)c1ccco1 | 178% |
| CS(=O)(=O)c1sc2nc(-c3cccs3)cc(-c3ccccc3)c2c1N | 114% |
| Cc1ccc2nc3nc(NCC4CCCO4)c(C(=O)NC4CCCC4)cc3c(=O)n2c1 (stereo not given) | 71.5% |
| CCn1c2ccccc2c(=O)c2ccccc21 | 70.6% |
| CCCCn1c(=NC(=O)c2cccnc2)c(C(=O)OCC)cc2c(=O)n3ccccc3nc21 | 102% |
| CC1C2(C)OCC(C#N)(C(=N)O2)C1(C#N)C#N (stereo not given) | 57.4% |
| COC(=O)c1cccc(/C=N/NC(N)=S)c1O | 70.5% |
| COc1cc(C2C(C#N)=C(N)Oc3cc(N)ccc32)cc(OC)c1OC (stereo not given) | 61.6% |
| CCCn1c(=N)c(C(=O)NCc2ccc3c(c2)OCO3)cc2c(=O)n3cccc(C)c3nc21 | 148% |
| Cc1cc(C)n2c(=S)[nH]nc2n1 | 58.9% |
| COc1cccc(C2C3CN(C)CC=C3C(C#N)=C(N)C2(C#N)C#N)c1OC (stereo not given) | 74% |
| Cc1ccc(C)c(-n2c(=O)c(C#N)cc3c(=O)n4ccccc4nc32)c1 | 70.6% |
| CCc1ccc(S(=O)(=O)Nc2ccc(-c3nc4cccnc4s3)cc2)s1 | 138% |
| Cc1ncc(CO)c(/C=N/NC(=O)c2cc3c(s2)CCCC3)c1O | 70.6% |
| COc1cc(OC)c(C2CC(=O)N3CN(c4ccccc4)CSC3=C2C#N)cc1OC (stereo not given) | 144% |
| CCCn1c(C)cc(C(=O)CN2C(=O)c3cccc(N)c3C2=O)c1C | 72.9% |

| Structure (SMILES) | inhibition |
| --- | --- |
| COCCCNC(=O)c1c(N)n(/N=C/c2cccs2)c2nc3ccccc3nc12 | 104% |
| COc1ccc(OCCn2cc(/C=C(\C#N)C(=O)NCc3ccco3)c3ccccc32)cc1 | 67% |
| CNCC(=O)N(CC(C)C)c1c(N)n(CC(C)C)c(=O)[nH]c1=O | 56.9% |
| N=c1oc2ccc3ccccc3c2cc1C(N)=S | 80.8% |
| O=c1oc2cc(O)ccc2c2oc3cc(O)ccc3c12 | 59.7% |
| Cc1cc(=O)oc2cc(NS(=O)(=O)c3ccccc3)ccc12 | 97.6% |
| Cc1cccnc1Nc1nc(-c2ccc(O)c(O)c2)cs1 | 55% |
| O=C1CCCC2=C1C(c1ccc(Br)cc1)c1c([nH]c(=S)[nH]c1=O)N2 (stereo not given) | 56.9% |
| N=c1oc2cc(O)ccc2cc1C(=O)Nc1ccccn1 | 70.6% |
| COC(=O)c1ccc2[nH]c(C)c(CN3CCCC3)c(=O)c2c1 | 74% |
| CCN(CC)C1=CC2=CC(=C(C#N)C#N)CCC2CC1 (stereo not given) | 71.5% |
| CCOC(=O)COc1ccc2c(C#N)c3ccccn3c2c1 | 70.6% |
| COc1ccc(-c2cc(C(F)(F)F)c(C#N)c(=O)[nH]2)cc1 | 134% |
| CCCCn1c(=O)nc2n(-c3ccc(Cl)cc3)c3ccccc3cc-2c1=O | 93.2% |
| COc1ccc(C2c3ccc(O)cc3Oc3ncn4nc(-c5ccccn5)nc4c32)cc1 (stereo not given) | 91.9% |
| C=CCN(CC=C)c1nc2ccccc2nc1C(C#N)C(=O)OC(C)C (stereo not given) | 77.3% |
| O=c1[nH]c2ccccc2c(O)c1O | 51.1% |
| COc1ccc(C(=O)/C=C/Nc2ccc(S(=O)(=O)Nc3nc(C)cc(C)n3)cc2)cc1OC | 96.8% |
| Cn1cc(/C=N\O)nc2c(=O)n(-c3ccccc3)c(=O)nc1-2 | 99.4% |
| O=C(Oc1cc2oc(=O)c3c(c2cc1Cl)CCCC3)c1ccco1 | 128% |
| COC(=O)C1=CNC=C(C(=O)OC)C1c1ccc(C(=O)OC)cc1 | 79.2% |
| CCCCNC(=O)c1cc2c(=O)n3cccc(C)c3nc2n(Cc2ccncc2)c1=N | 71.5% |
| N#CC(C#N)=C1C=C2C=C(N3CCOCC3)CCC2CC1 (stereo not given) | 70.6% |
| N#Cc1cc2cc3c(cc2nc1N1CCCCC1)OCCO3 | 108% |

| Structure (SMILES) | inhibition |
| --- | --- |
| N#CC1=C(N)Oc2cc(N)ccc2C1C1CCCCC1 (stereo not given) | 122% |
| CCOC(=O)C1CCCN(C(=O)Cn2sc3nc(C)cc(C)c3c2=O)C1 (stereo not given) | 53.5% |
| Cc1c(C)c2cc(Cl)c(O)c(CN3CCCCC3)c2oc1=O | 80.7% |
| CCCCn1nc(C(=O)Oc2ccc3c(C)cc(=O)oc3c2)c2ccccc2c1=O | 62.4% |
| CCc1cc2c(COC(=O)c3c(C)noc3C)cc(=O)oc2cc1O | 108% |
| Cc1csc2c(=O)sc(NC(=O)c3ccco3)nc12 | 76% |
| CCN(CC)c1ccc2cc(-c3nc4ccccc4[nH]3)c(=O)oc2c1 | 71.5% |
| COc1ccc(CNC(=O)c2cc3c(=O)n4ccccc4nc3n(Cc3cccnc3)c2=N)cc1 | 160% |
| O=C(O)c1ccc(N=c2oc3cc(O)ccc3cc2C(=O)NCc2ccccc2)cc1 | 70.6% |
| Cc1csc(NC(=O)c2cc(=O)[nH]c3ccccc23)n1 | 87.1% |
| N=c1c(C(=O)NCc2ccco2)cc2c(=O)n3ccccc3nc2n1Cc1ccccc1 | 72.9% |
| O=C(Oc1cc2oc(=O)c3c(c2cc1Cl)CCCC3)c1cccs1 | 134% |
| Cc1ccc(-n2sc3ccccc3c2=O)cc1 | 50.2% |
| CCN1CCN(Cc2c(O)c(Cl)cc3c(C)cc(=O)oc23)CC1 | 153% |
| Cc1ccc2nc3c(cc2c1)c(NC(=O)c1ccccn1)nn3CC(C)C | 91.2% |
| CCc1cc(=O)oc2c(C)c(O)c(CN(C)C)cc12 | 55.1% |
| Cc1c(C(=O)O)cccc1-n1c(C)cc(C=O)c1C | 68.6% |
| Cc1csc(NC(=O)c2cc(=O)[nH]c3ccc(S(=O)(=O)N4CCOCC4)cc23)n1 | 166% |
| COCCNc1c2c(c(C#N)c3nc4ccccc4n13)CCCC2 | 72% |
| CCN(CC)c1nc2ccccc2nc1C(C#N)C(=O)NCCc1ccccc1 (stereo not given) | 83.5% |
| CC1=C(C(=O)Nc2cc(C)ccn2)C(c2ccc(C)cc2)C2=C(CCCC2=O)N1 (stereo not given) | 56.1% |
| N#Cc1c(N)n(CCOC(=O)c2cccc(Br)c2)c2nc3ccccc3nc12 | 99.5% |
